This is an account of results in PMC7819943, “Rice protein-binding microarrays: a tool to detect cis-acting elements near promoter regions in rice”.

This is one part of the list.

The test concerns the target T1, OsWOX13 (Oryza sativa, UniProt Q5QMM3 1-267).
T1 sequence: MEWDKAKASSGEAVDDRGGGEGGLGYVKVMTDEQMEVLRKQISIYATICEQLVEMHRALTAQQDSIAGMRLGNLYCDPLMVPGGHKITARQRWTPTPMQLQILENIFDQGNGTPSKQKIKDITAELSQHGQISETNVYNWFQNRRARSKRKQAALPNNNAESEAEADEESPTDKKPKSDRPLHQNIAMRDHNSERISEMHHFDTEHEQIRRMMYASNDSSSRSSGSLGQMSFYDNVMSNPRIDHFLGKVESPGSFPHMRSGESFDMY
As to the kind of experiment: protein-binding microarray (RPBM); PBS, 2% BSA, 51.3 ng/ul salmon testes DNA, 50 uM zinc acetate, 200 nM TF, 25 C, 1 h; high values mean tight binding. The conditions noted are these: protein: recombinant; tags: N-terminal polyhistidine and DsRed monomer fusion (pET32a); label: CyDye5-dUTP incorporated in the synthesized complementary strand; 3' TTTTT single-stranded linker to array surface; dsDNA, one strand shown. The method, boiled down: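 Binding signal here means per-feature fluorescence intensity in arbitrary units. The values were read on an Axon 4000B scanner after a custom Agilent array, double-stranded by primer extension with Cy5-dUTP, was incubated with 200 nM protein at 25 °C for 1 h in PBS with 2% BSA, salmon testes DNA and 50 µM zinc acetate, then washed. The proteins were transcription factors with an N-terminal polyhistidine tag and DsRed, expressed in E. coli BL21-CodonPlus and purified on Ni–NTA.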
On to “AACAAATTGCATATGAAGGAAGGAACATGTGAAGCCTAGCCGGAGTCACCTAGTGCAG”, for which the binding signal is 5540 fluorescence intensity (a.u.). Regarding “TGCTAAATTTGGCTGTCAAAGCCTTCAGCACCTCGTACGTCGGAGTCACCTAGTGCAG”, the binding signal was 14000 fluorescence intensity (a.u.). With “ATGTCTATCAATTTAATTGGTTTCCTGGGCTATGTTGCTGCGGAGTCACCTAGTGCAG”, the binding signal is 40600 fluorescence intensity (a.u.). The value for “GTTCCTAATTGAAGTACCTCTTATGTTAACTTTTATTTGTCGGAGTCACCTAGTGCAG” was 43400 fluorescence intensity (a.u.). The value for “CAAATTTTGTAATTAAATTGACGATAGACCTGTAGTTTTACGGAGTCACCTAGTGCAG” was 16300 fluorescence intensity (a.u.); that for “GCTATCAGTTTAACTGAAATTTAATCGTGGCAAAACAGAACGGAGTCACCTAGTGCAG” was 7840 fluorescence intensity (a.u.). The value for “ACAATCAAATCACACAATGAAGATGAAGTTTCCGTTAGCACGGAGTCACCTAGTGCAG” was 4440 fluorescence intensity (a.u.). As to “TGTAACTGATTATTTCTTCAACGGTAGACGATGTATTCGACGGAGTCACCTAGTGCAG”, the binding signal was 32000 fluorescence intensity (a.u.). With “TTAGACAAATGTAATTTGTTCTAGTGAGAAATTTGACCGACGGAGTCACCTAGTGCAG” the figure was 13200 fluorescence intensity (a.u.); with “CTAAATGCCTGATGGAGATGACTACTCATCCATGACGGGCCGGAGTCACCTAGTGCAG”, 4670 fluorescence intensity (a.u.); with “TCAGAACAGTTGACTTTGATTGATCACCGCCCGTGACAATCGGAGTCACCTAGTGCAG”, 33600 fluorescence intensity (a.u.).

For “GGGCTCATGATTGGGGATATGGCGGTGTTGGCGAAGAATGCGGAGTCACCTAGTGCAG”, the binding signal was 25600 fluorescence intensity (a.u.). Take “TTTCTCTCCCTATCAATGCTCTCAATCACATACTTTGGTACGGAGTCACCTAGTGCAG”: the binding signal was 7490 fluorescence intensity (a.u.).

With “CTAAATTGAAATACTATATATAACGGGCTTCCTCATTTTACGGAGTCACCTAGTGCAG”, the binding signal was 7350 fluorescence intensity (a.u.). With “TATCAATAAAATAATTGATGACCTGGCAGCTTAGCTTAATCGGAGTCACCTAGTGCAG” the figure was 14100 fluorescence intensity (a.u.). On to “ATCTCCTAATTAATAAGAAGATGGTGTGTGTAAAATTAGGCGGAGTCACCTAGTGCAG”, for which the binding signal was 11500 fluorescence intensity (a.u.). With “TGTAATTGATAAATATAAATTTACTTTAGGCATGTTTGATCGGAGTCACCTAGTGCAG” the figure was 55700 fluorescence intensity (a.u.). The value for “ATGTAATAAATTGATGGTCAAAAGGCCCTATTTGGATCCACGGAGTCACCTAGTGCAG” was 34400 fluorescence intensity (a.u.); that for “ATTTAATTTAACTCTATAATTAAGTACTACCTCTGTCCCGCGGAGTCACCTAGTGCAG” was 35200 fluorescence intensity (a.u.); that for “TGGTAGTAATATGATTGGATTTTAAATGGAGCTGCACAACCGGAGTCACCTAGTGCAG” was 22200 fluorescence intensity (a.u.). With “TTTAATTTGTTCATTAAAGACCTAAGAGCTAATAAACGGACGGAGTCACCTAGTGCAG” the figure was 23100 fluorescence intensity (a.u.); with “GCAAATATTGTAAATGATTGCTCTTGTGCTAAGAAGAATACGGAGTCACCTAGTGCAG”, 4350 fluorescence intensity (a.u.); with “TACTAGCTGATCAGAATTATAACTGAATTCAATTTTGAAACGGAGTCACCTAGTGCAG”, 4820 fluorescence intensity (a.u.).

Take “ATCAGATTGTAGATTGGATAAGTAATTTGAGAGAAAACTTCGGAGTCACCTAGTGCAG”: the binding signal is 18500 fluorescence intensity (a.u.).

As to “CAAGATAATTTTAAACAGTATTTTAAATTTCATCCGTTTTCGGAGTCACCTAGTGCAG”, the binding signal is 20300 fluorescence intensity (a.u.). With “CAGGAGTAATTACTAATTAGGGACCGAGAAGTCGAAGGAGCGGAGTCACCTAGTGCAG” the figure was 29800 fluorescence intensity (a.u.). With “CTAAATTTTGGCTGGATTTCTTATGGATTTAATAGAGTTTCGGAGTCACCTAGTGCAG” the figure was 10900 fluorescence intensity (a.u.); with “GCTTAATTAGCTTGTATTTAGTTGGTTAATTTAGTGTTGTCGGAGTCACCTAGTGCAG”, 43600 fluorescence intensity (a.u.). For “AATAATTTGATCCCATCAAATTTGTTCATGAACAACAAGACGGAGTCACCTAGTGCAG”, the binding signal was 7370 fluorescence intensity (a.u.). As for “TAAATAAATTAATATAGAATTATGTTGTTCATATCAGTTCCGGAGTCACCTAGTGCAG”, the binding signal was 11700 fluorescence intensity (a.u.). Regarding “CAGATGGACTGTGATAGCGAATTAGGAACAGGAGAGAAAGCGGAGTCACCTAGTGCAG”, the binding signal was 7170 fluorescence intensity (a.u.). The value for “GCGCGGTGGTGGTGGTGGTGGTTGCTGTGGTAGCGAGGGTCGGAGTCACCTAGTGCAG” was 3320 fluorescence intensity (a.u.); that for “TAGTGATTGTCACTTCATTCGGAACCTCAATCACTTTCTGCGGAGTCACCTAGTGCAG” was 40000 fluorescence intensity (a.u.); that for “CGGTAATTAAAATAGTCACAAACAGATCTCAGCTTACCGCCGGAGTCACCTAGTGCAG” was 25000 fluorescence intensity (a.u.). The value for “CATTGACAGGCATCAAGCTAGCTAGCTAGCCAACTGTCTGCGGAGTCACCTAGTGCAG” was 30600 fluorescence intensity (a.u.). On to “AATTTATGAATTTGTTATCAATCACATAAATATTACATCTCGGAGTCACCTAGTGCAG”, for which the binding signal is 16100 fluorescence intensity (a.u.). The value for “CAGTGTACGTGATTTGTGGACATGCCAATCGCCACCGTCTCGGAGTCACCTAGTGCAG” was 6460 fluorescence intensity (a.u.); that for “AGCTACAAACAGCAAGTTGACAGGCTATAATAATCTCATACGGAGTCACCTAGTGCAG” was 3170 fluorescence intensity (a.u.).

In the case of “GATAAACAGAGACAGAATTGTAATTAAGCGCGAAAATGAACGGAGTCACCTAGTGCAG”, the binding signal is 22200 fluorescence intensity (a.u.).

For “AGGAAATTAAGGAAGCTGCAAATTGACTCTTTTGCCCTTCCGGAGTCACCTAGTGCAG”, the binding signal was 6110 fluorescence intensity (a.u.). As to “GGTTAATTAAGTCTCAAGTCACGCATAGCTTAACAATGGCCGGAGTCACCTAGTGCAG”, the binding signal is 40400 fluorescence intensity (a.u.). As to “CCTGATTCTGATTGGCGCCAACGTACGTACTGTACATGCGCGGAGTCACCTAGTGCAG”, the binding signal was 56900 fluorescence intensity (a.u.).
